Test results reported in the supplement of paper PMC8728848.
The list shows a part of the results.

Assays:
Test in all cases: glycan array binding signal (z-score within array); higher = stronger binding
Details in all cases: glycan notation: IUPAC condensed, linker removed
[1] = target: Fuc(a1-2)Gal
Procedure, shortened: (§1)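 The binding signal is a Z-score computed within each array and averaged over linkers. Arrays of the same protein sequence at different concentrations or buffers were also averaged together. Data originate from 3228 arrays in the Consortium for Functional Glycomics database, kept only where the protein sequence was available.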

[2] = target: Fuc(a1-2)Gal(b1-3)GalNAc
Procedure, shortened: as §1

[3] = target: Fuc(a1-2)Gal(b1-3)GalNAc(b1-3)Gal
Procedure, shortened: as §1

[4] = target: Fuc(a1-2)Gal(b1-3)GalNAc(b1-3)Gal(a1-4)Gal(b1-4)Glc
Procedure, shortened: as §1

[5] = target: Fuc(a1-2)Gal(b1-3)GalNAc(b1-3)Gal(b1-4)Glc
Procedure, shortened: as §1

[6] = target: Fuc(a1-2)Gal(b1-3)GalNAc(b1-4)[Neu5Ac(a2-3)]Gal(b1-4)Glc
Procedure, shortened: as §1

[7] = target: Fuc(a1-2)Gal(b1-3)[Fuc(a1-4)]GlcNAc
Procedure, shortened: as §1

[8] = target: Fuc(a1-2)Gal(b1-4)Glc
Procedure, shortened: as §1

[9] = target: Fuc(a1-2)Gal(b1-4)GlcNAc
Procedure, shortened: as §1

[10] = target: Fuc(a1-2)Gal(b1-4)GlcNAc(b1-3)Gal(b1-4)GlcNAc
Procedure, shortened: as §1

[11] = target: Fuc(a1-2)Gal(b1-4)GlcNAc(b1-3)Gal(b1-4)GlcNAc(b1-3)Gal(b1-4)GlcNAc
Procedure, shortened: as §1

[12] = target: Fuc(a1-2)Gal(b1-4)[Fuc(a1-3)]GalNAc(b1-3)Gal(b1-4)[Fuc(a1-3)]GlcNAc
Procedure, shortened: as §1

[13] = target: Fuc(a1-2)Gal(b1-4)[Fuc(a1-3)]GalNAc(b1-3)Gal(b1-4)[Fuc(a1-3)]GlcNAc(b1-3)Gal(b1-4)[Fuc(a1-3)]GalNAc
Procedure, shortened: as §1

[14] = target: Fuc(a1-2)Gal(b1-4)[Fuc(a1-3)]GlcNAc
Procedure, shortened: as §1

[15] = target: Fuc(a1-2)GlcNAc
Procedure, shortened: as §1

[16] = target: Fuc(a1-2)[Gal(a1-3)]Gal
Procedure, shortened: as §1

[17] = target: Fuc(a1-2)[Gal(a1-3)]Gal(b1-3)GlcNAc
Procedure, shortened: as §1

[18] = target: Fuc(a1-2)[Gal(a1-3)]Gal(b1-4)Glc
Procedure, shortened: as §1

[19] = target: Fuc(a1-2)[Gal(a1-3)]Gal(b1-4)GlcNAc
Procedure, shortened: as §1

[20] = target: Fuc(a1-2)[Gal(a1-3)]Gal(b1-4)[Fuc(a1-3)]GlcNAc
Procedure, shortened: as §1

[21] = target: Fuc(a1-2)[Gal(a1-4)]Gal(b1-4)GalNAc
Procedure, shortened: as §1

[22] = target: Fuc(a1-2)[GalNAc(a1-3)]Gal
Procedure, shortened: as §1

[23] = target: Fuc(a1-2)[GalNAc(a1-3)]Gal(b1-3)GlcNAc
Procedure, shortened: as §1

[24] = target: Fuc(a1-2)[GalNAc(a1-3)]Gal(b1-4)Glc
Procedure, shortened: as §1

[25] = target: Fuc(a1-2)[GalNAc(a1-3)]Gal(b1-4)GlcNAc
Procedure, shortened: as §1

[26] = target: Fuc(a1-2)[GalNAc(a1-3)]Gal(b1-4)[Fuc(a1-3)]GlcNAc
Procedure, shortened: as §1

[27] = target: Fuc(a1-2)[GalNAc(a1-4)]Gal(b1-4)GlcNAc
Procedure, shortened: as §1

[28] = target: Fuc(a1-3)GlcNAc
Procedure, shortened: as §1

[29] = target: Fuc(a1-3)[Gal(b1-4)]GlcNAc
Procedure, shortened: as §1

[30] = target: Fuc(a1-3)[Gal(b1-4)]GlcNAc(b1-4)Gal(b1-4)[Fuc(a1-3)]GlcNAc
Procedure, shortened: as §1

[31] = target: Fuc(a1-3)[Gal(b1-4)]GlcNAc(b1-4)Gal(b1-4)[Fuc(a1-3)]GlcNAc(b1-4)Gal(b1-4)[Fuc(a1-3)]GlcNAc
Procedure, shortened: as §1

[32] = target: Fuc(a1-3)[Gal3S(b1-4)]GlcNAc
Procedure, shortened: as §1

[33] = target: Fuc(a1-3)[GalNAc(b1-4)]Gal(b1-4)GlcNAc
Procedure, shortened: as §1

[34] = target: Fuc(a1-4)GlcNAc
Procedure, shortened: as §1

[35] = target: Fuc(b1-3)GlcNAc
Procedure, shortened: as §1

[36] = target: Gal(a1-2)Gal
Procedure, shortened: as §1

[37] = target: Gal(a1-3)Gal
Procedure, shortened: as §1

[38] = target: Gal(a1-3)Gal(b1-3)Glc
Procedure, shortened: as §1

[39] = target: Gal(a1-3)Gal(b1-3)GlcNAc
Procedure, shortened: as §1

[40] = target: Gal(a1-3)Gal(b1-4)GlcNAc
Procedure, shortened: as §1

[41] = target: Gal(a1-3)Gal(b1-4)[Fuc(a1-3)]GalNAc
Procedure, shortened: as §1

[42] = target: Gal(a1-3)GlcNAc
Procedure, shortened: as §1

[43] = target: Gal(a1-3)[Gal(a1-4)]Gal(b1-4)GlcNAc
Procedure, shortened: as §1

[44] = target: Gal(a1-4)Gal(b1-4)Gal
Procedure, shortened: as §1

[45] = target: Gal(a1-4)Gal(b1-4)GalNAc
Procedure, shortened: as §1

[46] = target: Gal(a1-4)GlcNAc
Procedure, shortened: as §1

[47] = target: Gal(a1-6)Glc
Procedure, shortened: as §1

[48] = target: Gal(b1-2)Gal
Procedure, shortened: as §1

[49] = target: Gal(b1-3)Gal
Procedure, shortened: as §1

[50] = target: Gal(b1-3)GalNAc
Procedure, shortened: as §1

[51] = target: Gal(b1-3)GalNAc(b1-3)Gal(a1-4)Gal(b1-4)Glc
Procedure, shortened: as §1

[52] = target: Gal(b1-3)GalNAc(b1-3)Gal(b1-4)Glc
Procedure, shortened: as §1

[53] = target: Gal(b1-3)GalNAc(b1-3)Gal(b1-4)GlcNAc
Procedure, shortened: as §1

[54] = target: Gal(b1-3)GalNAc(b1-4)Gal(b1-4)Glc
Procedure, shortened: as §1

[55] = target: Gal(b1-3)GalNAc(b1-4)[Neu5Ac(a2-3)]Gal(b1-4)Glc
Procedure, shortened: as §1

[56] = target: Gal(b1-3)[Fuc(a1-4)]GlcNAc
Procedure, shortened: as §1

[57] = target: Gal(b1-3)[Fuc(a1-4)]GlcNAc(b1-3)Gal(b1-4)GlcNAc
Procedure, shortened: as §1

[58] = target: Gal(b1-3)[Fuc(a1-4)]GlcNAc(b1-3)Gal(b1-4)[Fuc(a1-3)]GlcNAc
Procedure, shortened: as §1

[59] = target: Gal(b1-3)[GlcNAc(b1-6)]GalNAc
Procedure, shortened: as §1

[60] = target: Gal(b1-3)[GlcNAc(b1-6)]GlcNAc
Procedure, shortened: as §1

B1: TbCVNHOa (Tuber borchii), Q5MK11 (protein)
chain: GSHIGPYMSYADSSRNAVLTNGGRTLRAECRNADGNWVTSELDLDTCIGNPNGFLGWGMQNFSHSSEDIKLEEGGRKLTCRPKTVDGGFRERQGIDLNRIQNVNGRLVFQ
In the case of B1, the “glycan array binding signal (z-score)” value [1] is reported as -0.262, the “glycan array binding signal (z-score)” value [2] is reported as 0.076 and the “glycan array binding signal (z-score)” value [3] is reported as -0.24. The “glycan array binding signal (z-score)” value [4] was -0.223, the “glycan array binding signal (z-score)” value [5] was 3.46 and the “glycan array binding signal (z-score)” value [6] was -0.251. For the same binder, the “glycan array binding signal (z-score)” value [7] was -0.251, the “glycan array binding signal (z-score)” value [8] was -0.283 and the “glycan array binding signal (z-score)” value [9] was -0.255. The “glycan array binding signal (z-score)” value [10] was -0.3, the “glycan array binding signal (z-score)” value [11] was -0.253 and the “glycan array binding signal (z-score)” value [12] was -0.27. For the same binder, the “glycan array binding signal (z-score)” value [13] was -0.201, the “glycan array binding signal (z-score)” value [14] was -0.263 and the “glycan array binding signal (z-score)” value [15] was -0.228. The “glycan array binding signal (z-score)” value [16] was -0.29, the “glycan array binding signal (z-score)” value [17] was -0.223 and the “glycan array binding signal (z-score)” value [18] was -0.18. The “glycan array binding signal (z-score)” value [19] was -0.211, the “glycan array binding signal (z-score)” value [20] was -0.213 and the “glycan array binding signal (z-score)” value [21] was -0.288. For the same binder, the “glycan array binding signal (z-score)” value [22] was -0.124, the “glycan array binding signal (z-score)” value [23] was 1.98 and the “glycan array binding signal (z-score)” value [24] was 0.217. The “glycan array binding signal (z-score)” value [25] was 0.133, the “glycan array binding signal (z-score)” value [26] was 0.143 and the “glycan array binding signal (z-score)” value [27] was -0.287. The “glycan array binding signal (z-score)” value [28] was -0.282, the “glycan array binding signal (z-score)” value [29] was -0.257 and the “glycan array binding signal (z-score)” value [30] was 0.357. For the same binder, the “glycan array binding signal (z-score)” value [31] was -0.268, the “glycan array binding signal (z-score)” value [32] was -0.265 and the “glycan array binding signal (z-score)” value [33] was -0.229. The “glycan array binding signal (z-score)” value [34] was -0.265, the “glycan array binding signal (z-score)” value [35] was -0.091 and the “glycan array binding signal (z-score)” value [36] was -0.273. The “glycan array binding signal (z-score)” value [37] was -0.273, the “glycan array binding signal (z-score)” value [38] was -0.244 and the “glycan array binding signal (z-score)” value [39] was -0.283. For the same binder, the “glycan array binding signal (z-score)” value [40] was -0.254, the “glycan array binding signal (z-score)” value [41] was -0.255 and the “glycan array binding signal (z-score)” value [42] was -0.258. The “glycan array binding signal (z-score)” value [43] was -0.209, the “glycan array binding signal (z-score)” value [44] was -0.242 and the “glycan array binding signal (z-score)” value [45] was -0.231. The “glycan array binding signal (z-score)” value [46] was -0.262, the “glycan array binding signal (z-score)” value [47] was 0.445 and the “glycan array binding signal (z-score)” value [48] was -0.085. For the same binder, the “glycan array binding signal (z-score)” value [49] was -0.259, the “glycan array binding signal (z-score)” value [50] was -0.261 and the “glycan array binding signal (z-score)” value [51] was -0.266. The “glycan array binding signal (z-score)” value [52] was 5.6, the “glycan array binding signal (z-score)” value [53] was -0.288 and the “glycan array binding signal (z-score)” value [54] was -0.271. The “glycan array binding signal (z-score)” value [55] was -0.14, the “glycan array binding signal (z-score)” value [56] was -0.238 and the “glycan array binding signal (z-score)” value [57] was -0.236. The “glycan array binding signal (z-score)” value [58] was -0.246, the “glycan array binding signal (z-score)” value [59] was -0.307 and the “glycan array binding signal (z-score)” value [60] was -0.274.
